Results reported in paper PMC4336329 (PLoS ONE, 2015).
Hit rate of the full screen: of about 310,000 compounds, about 2,200 (0.71%) showed an effect of 50% or more. Effects have a minus sign here. The list shows a part of the results.

These compounds were tested against human ether-à-go-go-related gene (hERG) potassium channel (human, UniProt Q12809) (assay: primary screen, population patch clamp on CHO cells stably expressing hERG).
Sequence of human ether-à-go-go-related gene (hERG) potassium channel (Q12809 whole entry, looked up): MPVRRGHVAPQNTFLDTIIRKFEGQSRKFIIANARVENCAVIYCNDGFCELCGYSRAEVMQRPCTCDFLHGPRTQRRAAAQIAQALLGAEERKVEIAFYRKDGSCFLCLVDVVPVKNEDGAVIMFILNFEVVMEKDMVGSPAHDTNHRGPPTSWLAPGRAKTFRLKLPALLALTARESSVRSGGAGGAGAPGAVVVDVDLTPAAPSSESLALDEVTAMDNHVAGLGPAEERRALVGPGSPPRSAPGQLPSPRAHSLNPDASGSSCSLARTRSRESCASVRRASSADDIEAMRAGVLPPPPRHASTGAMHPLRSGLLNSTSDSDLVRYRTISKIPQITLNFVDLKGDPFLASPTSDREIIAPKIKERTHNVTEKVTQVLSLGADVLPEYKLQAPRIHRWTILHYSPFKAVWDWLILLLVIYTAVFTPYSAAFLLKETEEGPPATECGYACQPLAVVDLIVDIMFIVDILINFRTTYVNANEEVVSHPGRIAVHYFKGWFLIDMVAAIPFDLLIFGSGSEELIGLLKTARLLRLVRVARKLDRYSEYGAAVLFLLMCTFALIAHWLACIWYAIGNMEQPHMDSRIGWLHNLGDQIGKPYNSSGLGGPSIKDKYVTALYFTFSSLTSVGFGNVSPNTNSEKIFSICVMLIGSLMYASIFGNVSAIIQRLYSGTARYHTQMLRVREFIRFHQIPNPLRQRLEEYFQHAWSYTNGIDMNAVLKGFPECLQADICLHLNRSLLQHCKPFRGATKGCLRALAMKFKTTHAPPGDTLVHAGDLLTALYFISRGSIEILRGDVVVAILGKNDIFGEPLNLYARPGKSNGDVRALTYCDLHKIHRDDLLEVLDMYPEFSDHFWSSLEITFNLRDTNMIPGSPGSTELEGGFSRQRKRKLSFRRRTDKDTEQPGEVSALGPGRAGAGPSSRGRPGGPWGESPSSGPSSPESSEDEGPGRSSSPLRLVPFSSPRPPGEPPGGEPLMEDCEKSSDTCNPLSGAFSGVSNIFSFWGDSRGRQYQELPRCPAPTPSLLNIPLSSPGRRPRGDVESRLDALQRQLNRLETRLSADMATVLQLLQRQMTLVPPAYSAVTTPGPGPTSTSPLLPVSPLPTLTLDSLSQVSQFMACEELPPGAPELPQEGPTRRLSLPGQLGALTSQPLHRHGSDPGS

In order of rising “hERG current change (%, negative = inhibition) at 1uM” value:
1. CC(C(=O)N1CCN(c2ccc([N+](=O)[O-])cc2)CC1)N1C(=O)C2CC=CCC2C1=O (centres unmarked)  -50.2%
2. COc1ccc(C(=O)NC2CCCc3c2cnn3-c2cccc(C)c2C)o1 (centres unmarked)  -37.6%
3. CCCc1cc(C(=O)OCC(=O)N2CCN(c3ccc(OC)cc3)CC2)sc1C  -34.6%
4. CCCc1nc2c(C)ccc(C)c2c(N)c1CC  -17.4%
5. CCC(=O)Nc1cc2c3c(c1)CCN3C(=O)CC2  -13.9%
6. CCN1CCCC1CN(Cc1cc2cc(C)cc(C)c2[nH]c1=O)C(=O)Nc1ccccc1OC (centres unmarked)  -7.22%
7. CCOC(=O)C1(Cc2ccc(Cl)cc2)CCN(C(=O)CCc2cnccn2)CC1  -5.67%
8. CCN(CC)CCNC(=O)/C(=C\c1cccn1C)NC(=O)c1cccs1  -5.64%
9. O=C(COC(=O)c1ccccc1)Nc1ccccc1N1CCOCC1  -3.95%
10. COc1cccc(C(=O)C2CN(C)CC2c2ccc(Cl)cc2)c1 (centres unmarked)  -3.95%
11. COc1ccc(NC(=S)NC(=O)c2csnn2)cc1  -0.997%
12. CCOc1ccccc1N(CC(=O)Nc1cc(OC)ccc1OC)S(C)(=O)=O  -0.805%
13. COC(=O)c1sc(SC)c(S(=O)(=O)C(C)C)c1N/N=C(\C#N)C(=O)c1ccccc1  -0.337%
14. COc1cccc(NC(=O)[C@H](CC(C)C)NC(=O)[C@@H]2Cc3ccccc3CN2)c1  -0.182%
15. COc1cccc(CNS(=O)(=O)c2cc3c(cc2C)NC(=O)CO3)c1  -0.176%
16. CCOC(=O)c1c(C)n(-c2ccc(C)cc2)c2c(C(C(C)=O)C(=O)O)c(Br)c(O)c(O)c12 (centres unmarked)  0.244%
17. CC(C)(C)C1CCc2c(sc(NC(=O)C3CCCO3)c2C(N)=O)C1 (centres unmarked)  0.567%
18. COc1ccc(S(=O)(=O)NCc2ccc(C(=O)NCc3cccnc3)cc2)cc1  0.596%
19. CCCn1c(N)c(C(=O)CSc2nnc(N)s2)c(=O)[nH]c1=O  0.931%
20. O=C(NCCN1CCOCC1)c1c[nH]c2ccc(S(=O)(=O)N3CCOCC3)cc2c1=O  1.18%
21. CCCC(c1nnnn1C1CCCCC1)N1CCN(c2ncccn2)CC1.Cl (centres unmarked)  1.23%
22. CC1(C)Cc2c(cnn2-c2cccc(F)c2)C(NC(=O)Cn2cccn2)C1 (centres unmarked)  1.4%
23. COc1cnc(-c2ccccn2)nc1Oc1ccc(F)cc1F  1.83%
24. CCOc1ccc2oc(C(=O)OCC(=O)N3C(C)CCCC3C)c(C)c2c1 (centres unmarked)  2.29%
25. O=C(OCC(=O)c1c[nH]c2ccccc12)c1cccc(O)c1  4.59%
26. O=Cc1ccc(-c2nc3ccccc3s2)o1  4.72%
27. CCn1cc(C(=O)NCCCN2CCC(C)CC2)c2cc(OC)c(OC)cc2c1=O  5.24%
28. C#CCOCCOCCOCCNc1nc(N2CCN(C(=O)CCCCCCCCCCNC(=O)Cn3cc(C[C@@H](C)O)nn3)CC2)nc(N2CCN(C(=O)CCCCCCCCCCNC(=O)[C@H](CCCCN)n3cc(C[C@@H](C)CC)nn3)CC2)n1  5.31%
29. CC(C)C[C@H](NC(=O)OC(C)(C)C)c1nnc(SCc2ccccc2)o1  5.32%
30. CCOc1ncccc1C(=O)Nc1ccc(S(=O)(=O)Nc2nc(C)cc(C)n2)cc1  5.53%
31. CC(=O)N1CCc2cc(S(=O)(=O)CCC(=O)N3CCN(c4ccccn4)CC3)ccc21  5.53%
32. Cc1onc(-c2ccccc2Cl)c1C(=O)NC(=S)NCc1cccnc1  5.58%
33. Cc1cccc(C)c1NC(=O)COC(=O)c1cccnc1  6.24%
34. O=C(Oc1cccc(NC2=NS(=O)(=O)c3ccccc32)c1)c1ccncc1  6.41%
35. CC12CCC(=O)N1C(C(=O)Nc1nc(-c3ccccc3Cl)cs1)CS2 (centres unmarked)  6.51%
36. N#Cc1c(NC(=O)CSc2nnc(-c3ccccc3)o2)sc2c1CCCC2  7.35%
37. Cc1cc(NC(=O)C(C)SCC(=O)OCc2c(Cl)cccc2Cl)no1 (centres unmarked)  7.55%
38. CC(CCc1ccccc1)NC(=O)Cn1cccc1C(=O)c1ccccc1 (centres unmarked)  7.67%
39. CC1(C)Cc2c(sc(NC(=O)C(C)(C)C)c2C#N)C(C)(C)N1  7.69%
40. O=C1c2ccccc2C(=O)N1CC1c2ccccc2CCN1S(=O)(=O)c1ccccc1 (centres unmarked)  7.85%
41. O=C1CC(=O)CC(c2ccco2)C1  8.27%
42. CCN(CC(=O)Nc1ccc(OC)cc1)C(=O)Cc1ccc(OC)c(S(=O)(=O)N2CCOCC2)c1  8.35%
43. COc1ccc(OC(C)C(=O)Nc2ccc(F)cc2F)cc1 (centres unmarked)  8.43%
44. CCC1CN(C(=O)NCc2ccc(F)cc2)c2cc(C)ccc2O1 (centres unmarked)  8.44%
45. CC(=O)c1ccc(N2CCN(C(=O)Nc3ccc(C)cc3)CC2)cc1  8.58%
46. COc1ccccc1C1CCN(c2ccc(CO)cc2[N+](=O)[O-])CC1  8.83%
47. CCOC(=O)CSc1nnc(CNC(=O)c2ccc(OC)cc2)n1Cc1ccccc1  8.85%
48. Cc1ccc(N2C(=O)CSC2=S)cc1C  8.86%
49. CCC(C(=O)NCCc1ccc(OC)c(OC)c1)n1nc(C)n2c(cc3occc32)c1=O (centres unmarked)  8.96%
50. CCCCc1nccn1CCn1ccnc1CCCC.Cl  9.1%
51. COc1ccc(C(=O)NCCCCCCNC(=O)c2ccc(OC)cc2)cc1  9.15%
52. O=C1CC(C(=O)Nc2ccccc2)C2(CCCCC2)O1 (centres unmarked)  9.21%
53. COc1ccc(CCNC(=O)COc2ccc(S(=O)(=O)N3CCOCC3)cc2)cc1  9.31%
54. CCC(=O)CCC(=O)c1ccc2ccccc2c1  9.34%
55. COC(=O)CN1C(=O)[C@H]2[C@@H](c3ccc(C)o3)N3C(=O)CN(CC4CC4)C(=O)[C@@]3(C)[C@H]2C1=O  9.36%
56. CCOc1ccc(C(=O)NCc2ccco2)cc1Cl  9.69%
57. CCOC(=O)CSC1=NC(=O)/C(=C/c2ccc(Br)cc2)S1  9.71%
58. CCOC(=O)C(C)(C)N(Cc1ccc(C)cc1)S(=O)(=O)c1ccc(Cl)c([N+](=O)[O-])c1  10%
59. CC1CCCN(C(=O)COc2ccc3c(c2)OCO3)C1 (centres unmarked)  10.2%
60. C/C(=N\O)C1CCCCC1  10.4%
61. CC(=O)NC(Cc1cnc[nH]1)C(=O)O (centres unmarked)  10.5%
62. COc1ccc2sc(-c3ccccc3OC)c(-c3ccc(OC)c(F)c3)c2c1  10.6%
63. O=C(O)CC1Oc2ccc(Cl)cc2NC1=O (centres unmarked)  11.4%
64. CCOC(=O)C1(C)NC(c2ccc(N(C)C)cc2)C2C(=O)N(c3ccc(OC)cc3)C(=O)C21 (centres unmarked)  11.4%
65. CCN1CCN(c2nc(Nc3cc(OC)ccc3OC)nc(Nc3cc(OC)ccc3OC)n2)CC1  11.5%
66. Cc1ccc(-c2nn3c(C)nnc3c3ccccc23)cc1S(=O)(=O)NCCO  11.9%
67. CC(C)c1nnc(NC(=O)CCC(=O)N2CCN(Cc3ccccc3)CC2)s1  11.9%
68. CC(C)(C)OC(=O)[C@H](Cc1ccccc1)NC(=O)c1nc[nH]c1C(=O)NC1CC[NH2+]CC1.[Cl-]  11.9%
69. COc1ccc(-n2c(C)cc(/C=C3/SC(=O)N(CC(=O)N4CCOCC4)C3=O)c2C)cc1  12%
70. CC(C)N(Cc1nc(-c2ccccc2)no1)C(=O)CN(C)S(=O)(=O)c1ccc(Br)cc1  12%
71. CCN(CC)S(=O)(=O)c1ccc(S(=O)(=O)Nc2c(C)nn(C)c2C)cc1  12.6%
72. COCCNC(=O)c1cc(-c2ccc3c(c2)OCO3)on1  12.6%
73. CCS(=O)(=O)c1nc(S(=O)(=O)c2ccc(Cl)cc2)c(N2CCN(C)CC2)s1  13%
74. COc1ccc(CC2C(=O)NC(=O)N(c3ccccc3)C2=O)c(OC)c1 (centres unmarked)  13.3%
75. Cc1oc(C(=O)O)cc1COc1ccc2c3c(c(=O)oc2c1)CCC3  13.3%
76. O=C(Nc1ccccc1)c1ccc(Br)c(S(=O)(=O)Nc2cccnc2)c1  13.6%
77. CC(=O)c1sc(C(C)(C)C)cc1NC(=O)/C=C/C(=O)O  14.3%
78. Cc1cc(O)c(C2(C(F)(F)F)NCCNC2=O)cc1C (centres unmarked)  14.6%
79. CC(Nc1ccc(F)cc1F)C(=O)NC(=O)NC1CCCCC1 (centres unmarked)  15.1%
80. O=C(COC(=O)c1cnccn1)c1ccc(-c2ccccc2)cc1  16%
81. O=C(CCN1C(=O)CSC1=O)Nc1ccccc1  16.3%
82. O/N=C/c1ccc2ccccc2n1  17.2%
83. Cn1ncnc1SCc1cn2cccnc2n1  17.7%
84. CNC(=O)CSc1nnc(-c2ccncc2)n1Cc1ccccc1  17.9%
85. CCn1c(=O)c(CCC(=O)N2CCN(c3ccccn3)CC2)c(C)c2c(C)nn(-c3cccc(C)c3)c21  19.8%
86. O=C(NCCc1ccc(Cl)cc1)c1ccc2c(c1)OCCO2  20.2%
